Results on 1 substance are retold here after publication PMC2970546.

Sequences of proteins named here, by UniProt entry; tags and fusion partners are left off. A change or cut given only in a name is not applied to a line headed by its entry. A line that says so, or that is headed by a name, gives the form on record, which may keep a tag or linker.
human septin 3 (Q9UH03-2, form named): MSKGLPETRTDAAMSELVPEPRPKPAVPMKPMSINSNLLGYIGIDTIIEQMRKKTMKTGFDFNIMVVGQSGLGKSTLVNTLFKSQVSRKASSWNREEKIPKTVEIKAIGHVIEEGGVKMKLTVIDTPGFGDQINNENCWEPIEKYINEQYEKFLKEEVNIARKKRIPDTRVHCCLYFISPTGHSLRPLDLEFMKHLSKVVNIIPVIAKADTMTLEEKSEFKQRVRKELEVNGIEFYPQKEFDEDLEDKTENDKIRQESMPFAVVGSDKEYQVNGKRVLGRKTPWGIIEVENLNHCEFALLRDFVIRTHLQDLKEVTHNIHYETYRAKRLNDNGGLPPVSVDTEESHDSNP

Holding throughout (test): two-hybrid; LexA-septin bait (modified pBTM116) in yeast L40 screened against human fetal brain and human leukocyte cDNA libraries (pACT2); minimal medium without Trp, Leu, His, with 5 mM 3-AT; every clone confirmed one-to-one with its bait by beta-galactosidase filter assay, empty bait vector as control
One assay has as its target human septin 3 (human) (UniProt Q9UH03).
The target in the next assay is T1, human septin 6 (human) (UniProt Q14141).
T1 sequence: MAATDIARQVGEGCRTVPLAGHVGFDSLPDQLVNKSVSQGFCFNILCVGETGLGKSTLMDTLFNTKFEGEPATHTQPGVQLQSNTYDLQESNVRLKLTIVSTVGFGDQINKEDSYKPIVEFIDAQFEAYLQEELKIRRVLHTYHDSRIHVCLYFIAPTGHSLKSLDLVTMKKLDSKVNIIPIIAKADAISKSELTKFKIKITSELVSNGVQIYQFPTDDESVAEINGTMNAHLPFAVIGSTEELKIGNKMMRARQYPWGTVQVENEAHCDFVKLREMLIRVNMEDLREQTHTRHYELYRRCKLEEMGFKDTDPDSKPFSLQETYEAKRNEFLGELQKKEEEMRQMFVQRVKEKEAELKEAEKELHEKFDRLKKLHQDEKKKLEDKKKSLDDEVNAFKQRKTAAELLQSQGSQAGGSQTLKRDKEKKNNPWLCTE

In assay [1] the target is T2, human septin 9, transcript variant 3, protein isoform c, full length (human) (UniProt Q9UHD8).
T2 sequence: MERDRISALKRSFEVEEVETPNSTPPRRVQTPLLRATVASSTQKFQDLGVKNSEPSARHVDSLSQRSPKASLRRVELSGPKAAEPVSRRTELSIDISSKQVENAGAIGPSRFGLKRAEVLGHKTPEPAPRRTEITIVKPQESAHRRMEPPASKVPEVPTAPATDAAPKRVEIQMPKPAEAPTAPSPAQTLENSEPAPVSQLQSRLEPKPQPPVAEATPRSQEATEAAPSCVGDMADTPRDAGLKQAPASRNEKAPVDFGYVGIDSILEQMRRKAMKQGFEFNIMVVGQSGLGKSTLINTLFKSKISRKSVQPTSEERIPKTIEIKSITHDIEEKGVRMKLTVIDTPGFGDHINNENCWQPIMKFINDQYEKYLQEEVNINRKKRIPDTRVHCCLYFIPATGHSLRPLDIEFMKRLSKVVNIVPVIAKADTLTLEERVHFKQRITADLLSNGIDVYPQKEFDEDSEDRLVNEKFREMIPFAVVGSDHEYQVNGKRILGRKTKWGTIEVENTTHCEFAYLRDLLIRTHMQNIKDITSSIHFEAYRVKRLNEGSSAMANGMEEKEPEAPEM

Another assay addresses T3, human septin 10 (human) (UniProt Q9P0V9).
T3 sequence: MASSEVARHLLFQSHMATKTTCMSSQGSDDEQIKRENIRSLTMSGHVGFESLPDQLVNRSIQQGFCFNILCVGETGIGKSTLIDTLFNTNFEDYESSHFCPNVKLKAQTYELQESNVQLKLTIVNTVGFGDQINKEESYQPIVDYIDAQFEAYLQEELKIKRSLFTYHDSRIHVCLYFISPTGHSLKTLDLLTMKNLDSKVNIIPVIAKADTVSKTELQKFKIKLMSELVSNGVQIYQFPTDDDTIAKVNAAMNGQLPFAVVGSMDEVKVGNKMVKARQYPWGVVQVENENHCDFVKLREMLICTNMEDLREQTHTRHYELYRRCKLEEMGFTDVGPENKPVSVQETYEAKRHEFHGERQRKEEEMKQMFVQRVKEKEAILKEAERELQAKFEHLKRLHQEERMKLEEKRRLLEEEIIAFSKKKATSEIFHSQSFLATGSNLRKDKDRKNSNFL

No constants are given. Whether binding was seen depends on the method and setting. Some binding calls cover weakened binding; strength is not graded here.

For the substance “human septin 3 (from UniProt Q9UH03-2 1-350)”, the binding entry is recorded as “no binding” in the assay with human septin 3 (human), “binds” with human septin 6 (human), “no binding” in assay [1] and “no binding” with human septin 10 (human).
